# Measured values from ChEMBL document CHEMBL5606458, “ASAP - ZIKV NS2B-NS3 protease fluorescence single point” (2024).
# Among all 2,700 compounds or so, about 160 (5.9%) showed an effect of 50% or more. Some of the results follow.
# Target: Nonstructural protein 3 (Zika virus) (UniProt A0A024AXB9)
# [1] = PRVABC59, Concentration 15.0 uM, Number of replicates 1.0
# [2] = PRVABC59, Concentration 50.0 uM, Number of replicates 1.0
# [3] = PRVABC59, Concentration 10.0 uM, Number of replicates 1.0
# Sequence of UniProt A0A024AXB9 (A0A024AXB9 as listed by the source): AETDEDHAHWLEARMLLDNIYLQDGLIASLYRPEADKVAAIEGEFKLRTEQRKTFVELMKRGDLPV
smiles,measurement,setting,value
Cc1cc(CO)c2cccc(NC(=O)c3cc(C(F)F)nn3C)c2n1,inhibition,"PRVABC59, Concentration 49.95 uM, Number of replicates 2.0, Standard deviation 2.6796892104773047 %",5.91%
same,inhibition,"PRVABC59, Concentration 99.9 uM, Number of replicates 2.0, Standard deviation 1.6108242274041706 %",18.1%
COc1cc2c(cc1NC(=O)c1cc(Cl)ccc1NS(=O)(=O)c1ccc(Oc3ccccc3Cl)cc1)oc1ccccc12,inhibition,[1],36.2%
NC(=O)c1ccc(CNC(=O)c2ccc(OCc3ccccc3)cc2)cc1,inhibition,"PRVABC59, Concentration 49.5 uM, Number of replicates 2.0, Standard deviation 3.3276892513121745 %",3.53%
same,inhibition,"PRVABC59, Concentration 99.01 uM, Number of replicates 2.0, Standard deviation 3.432155778730429 %",4.11%
same,inhibition,"PRVABC59, Concentration 198.0 uM, Number of replicates 2.0, Standard deviation 2.352669831979398 %",0.729%
CC(C)(C)c1ccc(S(=O)(=O)N2CCN(C(=O)c3cc(Cl)ccc3NS(=O)(=O)c3ccc(Oc4ccccc4Cl)cc3)CC2)cc1,inhibition,[1],14.3%
O=C(NCc1nc(CO)cs1)[C@]1(c2ccc(F)cc2)CCCNC1,inhibition,"PRVABC59, Concentration 49.5 uM, Number of replicates 2.0, Standard deviation 1.2824455392848024 %",-0.834%
same,inhibition,"PRVABC59, Concentration 99.01 uM, Number of replicates 2.0, Standard deviation 2.655568906249308 %",0.218%
same,inhibition,"PRVABC59, Concentration 198.0 uM, Number of replicates 2.0, Standard deviation 3.7333414571678256 %",1.17%
CC(C)[C@H](NC(=O)c1cc(Cl)ccc1NS(=O)(=O)c1ccc(Oc2ccccc2Cl)cc1)c1ccccn1,inhibition,[1],33.2%
Cc1cc(CO)c2cccc(Cc3cccc(C(=O)Nc4ccc(C(=O)O)o4)c3)c2n1,inhibition,"PRVABC59, Concentration 49.95 uM, Number of replicates 2.0, Standard deviation 1.1430744565328115 %",9.19%
same,inhibition,"PRVABC59, Concentration 99.9 uM, Number of replicates 2.0, Standard deviation 1.0434494218967008 %",26.9%
COc1cccc(CC(=O)Nc2cccc(C(=O)O)c2)c1,inhibition,"PRVABC59, Concentration 49.5 uM, Number of replicates 2.0, Standard deviation 3.65290432322533 %",-1.9%
same,inhibition,"PRVABC59, Concentration 99.01 uM, Number of replicates 2.0, Standard deviation 2.0734382572705075 %",-1.79%
same,inhibition,"PRVABC59, Concentration 198.0 uM, Number of replicates 2.0, Standard deviation 1.7973949441374963 %",1.71%
CC(C)(CO)NC(=O)c1cc(Cl)cc(NC(=O)COc2cc(Cl)cc(Cl)c2)c1,inhibition,"PRVABC59, Concentration 49.5 uM, Number of replicates 2.0, Standard deviation 2.8806463957016115 %",4.68%
same,inhibition,"PRVABC59, Concentration 99.01 uM, Number of replicates 2.0, Standard deviation 2.1798936733965664 %",5.69%
same,inhibition,"PRVABC59, Concentration 198.0 uM, Number of replicates 2.0, Standard deviation 1.4648393452800168 %",5.59%
O=Cc1ccc(N2CCC(C(=O)N3CCCCC[C@H]3c3ccco3)CC2)cc1,inhibition,[2],24.1%
CC(=O)N[C@@H](CCCCN)C(=O)Nc1cccc(Cc2cccc3c(CO)cc(C)nc23)c1,inhibition,"PRVABC59, Concentration 49.95 uM, Number of replicates 2.0, Standard deviation 2.0664029156562504 %",-2.36%
same,inhibition,"PRVABC59, Concentration 99.9 uM, Number of replicates 2.0, Standard deviation 2.3921411563999717 %",13.4%
Cn1c(CO)nnc1[C@H]1CCCN(C(=O)c2cc(Cl)ccc2NS(=O)(=O)c2ccc(Oc3ccccc3Cl)cc2)C1,inhibition,[1],1.58%
C[C@@H](CNC(=O)c1ccn([C@H]2CCCNC2)n1)c1cccc(=O)[nH]1,inhibition,"PRVABC59, Concentration 49.5 uM, Number of replicates 2.0, Standard deviation 3.4567757759943705 %",0.214%
same,inhibition,"PRVABC59, Concentration 99.01 uM, Number of replicates 2.0, Standard deviation 2.531291505569599 %",1.08%
same,inhibition,"PRVABC59, Concentration 198.0 uM, Number of replicates 2.0, Standard deviation 6.404841661420009 %",3.56%
Cc1cccc(C)c1OC[C@H](C)NC(=O)C1CCN(c2ccc(C=O)cc2)CC1,inhibition,[2],12.2%
COc1cc(NC(=O)C2CCN(c3ccc(C=O)cc3)CC2)cc(OC)c1,inhibition,[2],28%
O=Cc1ccc(N2CCC(C(=O)NC[C@H](O)COc3ccccc3)CC2)cc1,inhibition,[2],25.2%
O=C(c1cc(Cl)ccc1NS(=O)(=O)c1ccc(Oc2ccccc2Cl)cc1)N1CCN(c2ccnc3cc(Cl)ccc23)CC1,inhibition,[1],16.6%
C#CCN(Cc1ccc(C)cc1)C(=O)C1CCN(c2ccc(C=O)cc2)CC1,inhibition,[3],25.1%
O=Cc1ccc(N2CCC(C(=O)Nc3ccc(OCc4ccccn4)c(Cl)c3)CC2)cc1,inhibition,[2],24.3%
COc1ccccc1N1CCN(C(=O)C2CCN(c3ccc(C=O)cc3)CC2)CC1,inhibition,[2],19.5%
CN(Cc1csc(-c2ccccc2)n1)C(=O)C1CCN(c2ccc(C=O)cc2)CC1,inhibition,[2],23.9%
O=C1Nc2c(Br)cccc2C[C@@]12CCCN2,inhibition,"PRVABC59, Concentration 49.5 uM, Number of replicates 2.0, Standard deviation 1.738787201398763 %",-0.883%
same,inhibition,"PRVABC59, Concentration 99.01 uM, Number of replicates 2.0, Standard deviation 0.670473109245803 %",-0.31%
same,inhibition,"PRVABC59, Concentration 198.0 uM, Number of replicates 2.0, Standard deviation 1.300556324581161 %",3%
O=C(NCCc1nc(-c2ccc(Cl)cc2)no1)c1cc(Cl)ccc1NS(=O)(=O)c1ccc(Oc2ccccc2Cl)cc1,inhibition,[1],20.2%
COc1cc(CS(=O)(=O)CCCC(F)(F)F)nc(N2CCNCC2)n1,inhibition,"PRVABC59, Concentration 49.5 uM, Number of replicates 2.0, Standard deviation 2.487167137463286 %",1.65%
same,inhibition,"PRVABC59, Concentration 99.01 uM, Number of replicates 2.0, Standard deviation 2.1684988514331613 %",3.72%
same,inhibition,"PRVABC59, Concentration 198.0 uM, Number of replicates 2.0, Standard deviation 2.4379419680893664 %",6.21%
C[C@@H](Cc1ccc(O)cc1)NC(=O)C1CCN(c2ccc(C=O)cc2)CC1,inhibition,[2],24.3%
O=C(Nc1ccccc1OCC(F)(F)F)c1cc(Cl)ccc1NS(=O)(=O)c1ccc(Oc2ccccc2Cl)cc1,inhibition,[1],48.1%
COc1ccc2ccccc2c1CCNC(=O)C1CCN(c2ccc(C=O)cc2)CC1,inhibition,[2],24.7%
O=Cc1ccc(N2CCC(C(=O)N[C@@H]3CCCN(Cc4ccccc4)C3)CC2)cc1,inhibition,[2],23.2%
O=C(c1cc(Cl)ccc1NS(=O)(=O)c1ccc(Oc2ccccc2Cl)cc1)N1CCN(c2ccccc2O)CC1,inhibition,[1],-1.02%
O=Cc1ccc(N2CCC(C(=O)Nc3cncc(Br)c3)CC2)cc1,inhibition,[2],24.3%
COc1cc(F)c(CNC(=O)C2CCN(c3ccc(C=O)cc3)CC2)c(F)c1,inhibition,[3],12.5%
Cc1cc(CO)c2cccc(Cc3cccc(C(=O)N4CC[C@@H](O)C4)c3)c2n1,inhibition,"PRVABC59, Concentration 49.95 uM, Number of replicates 2.0, Standard deviation 1.677907174542838 %",-9.27%
same,inhibition,"PRVABC59, Concentration 99.9 uM, Number of replicates 2.0, Standard deviation 1.3580557527180275 %",-9.55%
CN(Cc1nc2ccccc2n1C)C(=O)c1cc(Cl)ccc1NS(=O)(=O)c1ccc(Oc2ccccc2Cl)cc1,inhibition,[1],13%
COc1cc(CNC(=O)C2CCN(c3ccc(C=O)cc3)CC2)ccc1O,inhibition,[3],25.4%
Cc1cnccc1NC(=O)c1cccn(CC(C)C)c1=O,inhibition,"PRVABC59, Concentration 49.5 uM, Number of replicates 2.0, Standard deviation 0.2976335420448987 %",1.09%
same,inhibition,"PRVABC59, Concentration 99.01 uM, Number of replicates 2.0, Standard deviation 1.0257428986345465 %",0.585%
same,inhibition,"PRVABC59, Concentration 198.0 uM, Number of replicates 2.0, Standard deviation 0.8138681623593715 %",-1.05%
O=C(c1ccc2c(c1)B(O)OC2)N1CCN[C@H](c2ccc(Cl)cc2)C1,inhibition,"PRVABC59, Concentration 49.5 uM, Number of replicates 2.0, Standard deviation 0.1657054768360982 %",-1.89%
same,inhibition,"PRVABC59, Concentration 99.01 uM, Number of replicates 2.0, Standard deviation 0.8575259332425326 %",-0.309%
same,inhibition,"PRVABC59, Concentration 198.0 uM, Number of replicates 2.0, Standard deviation 0.5861832581239415 %",3.15%
Cc1cc(CO)c2cccc(Cc3ccccc3C(=O)NCCN3CCOCC3)c2n1,inhibition,"PRVABC59, Concentration 99.9 uM, Number of replicates 2.0, Standard deviation 0.9595535911248555 %",-8.41%
Nc1ccc(-c2cccc3c2COB3O)cn1,inhibition,"PRVABC59, Concentration 99.5 uM, Number of replicates 2.0, Standard deviation 1.8761276805996356 %",-4.95%
same,inhibition,"PRVABC59, Concentration 198.0 uM, Number of replicates 2.0, Standard deviation 3.2865185238127927 %",-4.86%
same,inhibition,"PRVABC59, Concentration 500.0 uM, Number of replicates 2.0, Standard deviation 6.545878292794741 %",1.91%
O=C(NCCc1ccc(O)c(O)c1)c1cc(Cl)ccc1NS(=O)(=O)c1ccc(Oc2ccccc2Cl)cc1,inhibition,[1],45.1%
COc1ccc2ccccc2c1CCNC(=O)c1cc(Cl)ccc1NS(=O)(=O)c1ccc(Oc2ccccc2Cl)cc1,inhibition,[1],29.5%
Cc1cc(CO)c2cccc(NC(=O)Cc3nnc(C)[nH]3)c2n1,inhibition,"PRVABC59, Concentration 49.95 uM, Number of replicates 2.0, Standard deviation 2.3535096922296743 %",9.35%
same,inhibition,"PRVABC59, Concentration 99.9 uM, Number of replicates 2.0, Standard deviation 3.1815030758395326 %",21.3%
